In PubChem BioAssay AID1479 (National Center for Advancing Translational Sciences (NCATS), 2009):
Hit rate of the full screen: of about 280,000 compounds, about 820 (0.29%) were called active. The shares of active, inactive and inconclusive entries below differ from those in the screen. The call rests on the fitted dose curve; in most records, active means well fitted curve in either direction with a large enough effect; inconclusive means small, poorly fitted or top-dose-only effect; inactive means flat fitted curve, though single readings scatter. No potency is given beside an inconclusive call; the fits are too rough. Some structures have more than one record in an assay (separate samples or runs), and their calls can disagree.

Assay: Total Fluorescence Counterscreen for Inhibitors of the Interaction of Thyroid Hormone Receptor and Steroid Receptor Coregulator 2
Details: TRb/SRC2 Texas Red total fluorescence interference; series mostly up to 106 µM
Method in brief: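 Flags fluorescent or light-absorbing compounds by total fluorescence, S + 2P, at 555 nm excitation and 632 nm emission. Mixture: 20 nM Texas Red SRC2 peptide, 0.6 uM human TRb LBD, 1 uM T3, 5% DMSO; compound exposure 5 h at ambient temperature.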
Potency means the concentration at half of the fitted maximal effect; tags describe the fitted curve by direction and shape or compound fluorescence and quenching.

Compound | Potency
O=c1[nH][nH]c(C(F)(F)F)c1C=Nc1ccccc1 | inactive
COc1cccc(NS(=O)(=O)c2ccc3[nH]cc(C(=O)NCCc4ccc(C)cc4)c(=O)c3c2)c1 | inconclusive [quencher, full curve]
O=C(Cn1cc(S(=O)(=O)Cc2cccc(Cl)c2)c2ccccc21)Nc1ccc(F)c(Cl)c1 | inconclusive [quencher, full curve]
COc1ccc(C2CC(=O)c3cc(-c4nc(-c5cccc([N+](=O)[O-])c5)cs4)c(=O)n(-c4ccccc4C)c3C2)cc1 (centres undefined) | active: 89.1 µM [quencher]
CCOc1ccc(OCC)c(NC(=O)CN2CCN(c3ccc(C)cc3C)CC2)c1 | inactive
Cc1cc(=O)n(C(C)C(=O)NCc2ccccc2Cl)c2c1c(C)nn2-c1ccccc1 (centres undefined) | inconclusive [falling, partial curve, poor fit]
CCn1c(CN2CCCCC2)nc2cc(NC(=O)COc3ccc([N+](=O)[O-])cc3)ccc21 | inconclusive [quencher, partial curve]
O=c1cc(-c2ccccc2)oc2cc(O)c(O)c(O)c12 | active: 44.7 µM [quencher]
COc1ccc(-c2nc(CSc3nc4ncccc4[nH]3)c(C)o2)cc1OC | inconclusive [quencher, full curve]
O=C(Nc1ccc2c(c1)OCCO2)c1coc2ccccc2c1=O | inconclusive [falling, full curve, poor fit]
COc1ccc(-n2c(=O)c3c(C)c(C)sc3n(Cc3ccc(F)cc3)c2=O)c(OC)c1 | inconclusive [falling, full curve, poor fit]
Cc1ccc(OCC(=O)OCc2cc(=O)n3nc(C4CCCCC4)sc3n2)cc1 | inconclusive [quencher, full curve]
CCOc1ccccc1NS(=O)(=O)c1c(C(=O)OC)sc2cccc(F)c12 | inconclusive [quencher, full curve]
COC(=O)c1cc(OC)c(OC)cc1NC(=O)Nc1ccccc1F | inactive
CSc1ncc(C(=O)NCc2cccc(Br)c2)c(-c2ccccc2)n1 | inconclusive [quencher, full curve]
S=c1[nH]nc(-c2cc(-c3ccccc3)n[nH]2)n1/N=C/c1cccc(Cl)c1 | inactive
CC(Sc1ncnc2ccccc12)C(=O)Nc1ccc2c(c1)OCCO2 (centres undefined) | inconclusive [falling, full curve, poor fit]
O=C(NC1(C(F)(F)F)N=C(c2ccccc2)N(C2CCCCC2)C1=O)c1ccccc1F (centres undefined) | inconclusive [falling, full curve, poor fit]
COC(=O)c1cc2sc(Cl)cc2n1Cc1nc(-c2ccccc2F)oc1C | active: 25.1 µM [quencher]
COc1ccc(NC(=O)c2ccc3c(=O)n4nc(Nc5ccccc5C)sc4nc3c2)cc1 | inconclusive [quencher, partial curve]
CC1CC(=O)c2c(cc3c(-c4c(O)cc(O)c5c(O)c6c(cc45)OC(C)CC6=O)c(O)cc(O)c3c2O)O1 (centres undefined) | inconclusive [quencher, partial curve]
COc1ccc(CNC(=O)CN(C)S(=O)(=O)c2ccc3[nH]c4c(c3c2)CCCC4)cc1 | inconclusive [quencher, full curve]

Compound | Potency
CCc1ccccc1NC(=O)c1noc(C(C)C)c1[N+](=O)[O-] | inactive
COc1cc(OC)cc(-n2nnnc2SCC(=O)NC2CCCC2)c1 | inactive
CCOC(=O)C1=C(CNCc2ccc(Cl)cc2)NC(=O)NC1c1ccccc1 (centres undefined) | inconclusive [falling, full curve, poor fit]
COc1cccc(/C=C(\C#N)c2nc3ccccc3c(=O)[nH]2)c1OC | inconclusive
O=C(Nc1ccc(Cl)cc1)Nc1cccc2nsnc12 | inactive
COc1ccc(NC(=O)c2ccco2)cc1NC(=O)c1ccc(OC(C)C)cc1 | active: 0.355 µM [quencher]
CC(=O)N[C@@H](CS)C(=O)O | inconclusive [falling, full curve, poor fit]
Cc1cc2cc(CNC(=O)CCC(=O)O)ccc2n1C | inconclusive [fluorescent, partial curve]
CN(C)C(=O)CSc1ncnc2scc(-c3ccccc3)c12 | inactive
CCOc1ccc2c(c1)sc(N)[n+]2Cc1cc(C)cc2cccnc12 | inactive
Cc1cc(/C=C\c2ccc3cc(N(C)C)ccc3[n+]2C)c(C)n1-c1ccccc1 | active: 14.1 µM [fluorescent]
CC1CCc2onc(C(=O)N3CCN(c4cccc(C(F)(F)F)c4)CC3)c2C1 (centres undefined) | inconclusive [falling, full curve, poor fit]
Cc1ccccc1OCCNc1cc(N2CCCCC2)ccc1[N+](=O)[O-] | inactive
Cc1ncc(CO)c(/C=N/NC(=O)c2cc(Br)ccc2O)c1O | inactive
COc1cc(OC)c(-c2c3cc(O)c(=O)cc-3oc3cc(O)c(O)cc23)cc1OC | active: 39.8 µM [fluorescent]
COc1ccccc1N(Cc1cc2cccc(C)c2[nH]c1=O)C(=O)c1cccc(Cl)c1 | inconclusive [falling, partial curve, poor fit]
O=C(/C=C/c1ccc(OCc2ccccc2)c(OCc2ccccc2)c1)c1cccnc1 | active: 1120 µM [quencher]
COc1ccc(CC(=O)O)cc1O | inactive
Cc1ccc(Nc2nc(N/N=C/c3c[nH]c4ccccc34)nc(N3CCOCC3)n2)cc1 | active: 631 µM [quencher]
Cc1ccc(S(=O)(=O)c2nc(-c3ccc(Cl)cc3)oc2N2CCCCCC2)cc1 | inconclusive [falling, full curve, poor fit]
O=c1nc2s/c(=C\c3ccco3)c(=O)n2nc1Cc1ccccc1 | inconclusive [quencher, partial curve]
Cc1cccc(N2C(=O)CCSC23C(=O)N(Cc2ccc(F)cc2)c2ccccc23)c1 (centres undefined) | inconclusive [quencher, partial curve]
